Source: PMC9911399, “Two distinct binding modes provide the RNA-binding protein RbFox with extraordinary sequence specificity”
Positions count from the first letter of the chain named. The list shows a part of the results.

T1: RBFOX1 RRM (Homo sapiens, UniProt Q9NWB1 109-208)
T1 sequence: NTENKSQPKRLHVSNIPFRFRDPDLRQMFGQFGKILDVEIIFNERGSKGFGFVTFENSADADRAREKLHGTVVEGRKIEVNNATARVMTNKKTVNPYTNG

B1: AUCGCGU (DNA:RNA)
RNA: GGGAGACCGGAAUUCAGAUUGUCCAUCGCGUUUAAAUCCCGUCGUAGCCACCA
DNA 1: CAATCTGAATTCCGGTCTCCC
DNA 2: TGGTGGCTACGACGGGATT
B2: UGGACGC (DNA:RNA)
RNA: B1 RNA with A25U, U26G, C27G, G28A, U31C
DNA 1: CAATCTGAATTCCGGTCTCCC
DNA 2: TGGTGGCTACGACGGGATT
B3: AGACCUU (DNA:RNA)
RNA: B1 RNA with U26G, C27A, G28C, G30U
DNA 1: CAATCTGAATTCCGGTCTCCC
DNA 2: TGGTGGCTACGACGGGATT
B4: AUCAUAG (DNA:RNA)
RNA: B1 RNA with G28A, C29U, G30A, U31G
DNA 1: CAATCTGAATTCCGGTCTCCC
DNA 2: TGGTGGCTACGACGGGATT
B5: UUAAAGA (DNA:RNA)
RNA: B1 RNA with A25U, C27A, G28A, C29A, U31A
DNA 1: CAATCTGAATTCCGGTCTCCC
DNA 2: TGGTGGCTACGACGGGATT
B6: GGAGUGU (DNA:RNA)
RNA: B1 RNA with A25G, U26G, C27A, C29U
DNA 1: CAATCTGAATTCCGGTCTCCC
DNA 2: TGGTGGCTACGACGGGATT
B7: AACCCGU (DNA:RNA)
RNA: B1 RNA with U26A, G28C
DNA 1: CAATCTGAATTCCGGTCTCCC
DNA 2: TGGTGGCTACGACGGGATT
B8: CCCUUUG (DNA:RNA)
RNA: B1 RNA with A25C, U26C, G28U, C29U, G30U, U31G
DNA 1: CAATCTGAATTCCGGTCTCCC
DNA 2: TGGTGGCTACGACGGGATT
B9: GCGAUUC (DNA:RNA)
RNA: GGGAGACCGGAAUUCAGAUUGUCCGCGAUUCUUAAAUCCCGUCGUAGCCACCA
DNA 1: CAATCTGAATTCCGGTCTCCC
DNA 2: TGGTGGCTACGACGGGATT
B10: CAUUCCU (DNA:RNA)
RNA: B1 RNA with A25C, U26A, C27U, G28U, G30C
DNA 1: CAATCTGAATTCCGGTCTCCC
DNA 2: TGGTGGCTACGACGGGATT
B11: AUUGGAG (DNA:RNA)
RNA: B1 RNA with C27U, C29G, G30A, U31G
DNA 1: CAATCTGAATTCCGGTCTCCC
DNA 2: TGGTGGCTACGACGGGATT
B12: CCGUAGA (DNA:RNA)
RNA: B9 RNA with G25C, A28U, U29A, U30G, C31A
DNA 1: CAATCTGAATTCCGGTCTCCC
DNA 2: TGGTGGCTACGACGGGATT
B13: AGCAUUU (DNA:RNA)
RNA: B1 RNA with U26G, G28A, C29U, G30U
DNA 1: CAATCTGAATTCCGGTCTCCC
DNA 2: TGGTGGCTACGACGGGATT
B14: UUCGACG (DNA:RNA)
RNA: B1 RNA with A25U, C29A, G30C, U31G
DNA 1: CAATCTGAATTCCGGTCTCCC
DNA 2: TGGTGGCTACGACGGGATT
B15: CUGGCGG (DNA:RNA)
RNA: B1 RNA with A25C, C27G, U31G
DNA 1: CAATCTGAATTCCGGTCTCCC
DNA 2: TGGTGGCTACGACGGGATT
B16: AAAACGA (DNA:RNA)
RNA: B1 RNA with U26A, C27A, G28A, U31A
DNA 1: CAATCTGAATTCCGGTCTCCC
DNA 2: TGGTGGCTACGACGGGATT
B17: AACGUAA (DNA:RNA)
RNA: B1 RNA with U26A, C29U, G30A, U31A
DNA 1: CAATCTGAATTCCGGTCTCCC
DNA 2: TGGTGGCTACGACGGGATT
B18: AAGUGGU (DNA:RNA)
RNA: B1 RNA with U26A, C27G, G28U, C29G
DNA 1: CAATCTGAATTCCGGTCTCCC
DNA 2: TGGTGGCTACGACGGGATT
B19: GCGCGAG (DNA:RNA)
RNA: B9 RNA with A28C, U29G, U30A, C31G
DNA 1: CAATCTGAATTCCGGTCTCCC
DNA 2: TGGTGGCTACGACGGGATT
B20: UCACCGG (DNA:RNA)
RNA: B1 RNA with A25U, U26C, C27A, G28C, U31G
DNA 1: CAATCTGAATTCCGGTCTCCC
DNA 2: TGGTGGCTACGACGGGATT
B21: AUAAACC (DNA:RNA)
RNA: B1 RNA with C27A, G28A, C29A, G30C, U31C
DNA 1: CAATCTGAATTCCGGTCTCCC
DNA 2: TGGTGGCTACGACGGGATT
B22: AACCGAU (DNA:RNA)
RNA: B1 RNA with U26A, G28C, C29G, G30A
DNA 1: CAATCTGAATTCCGGTCTCCC
DNA 2: TGGTGGCTACGACGGGATT
B23: UCGUAGC (DNA:RNA)
RNA: B9 RNA with G25U, A28U, U29A, U30G
DNA 1: CAATCTGAATTCCGGTCTCCC
DNA 2: TGGTGGCTACGACGGGATT
B24: GCGUCUU (DNA:RNA)
RNA: B9 RNA with A28U, U29C, C31U
DNA 1: CAATCTGAATTCCGGTCTCCC
DNA 2: TGGTGGCTACGACGGGATT
B25: CCUGUUG (DNA:RNA)
RNA: B9 RNA with G25C, G27U, A28G, C31G
DNA 1: CAATCTGAATTCCGGTCTCCC
DNA 2: TGGTGGCTACGACGGGATT
B26: CCUGGAC (DNA:RNA)
RNA: B9 RNA with G25C, G27U, A28G, U29G, U30A
DNA 1: CAATCTGAATTCCGGTCTCCC
DNA 2: TGGTGGCTACGACGGGATT
B27: GUACUUG (DNA:RNA)
RNA: B9 RNA with C26U, G27A, A28C, C31G
DNA 1: CAATCTGAATTCCGGTCTCCC
DNA 2: TGGTGGCTACGACGGGATT
B28: AGAAACC (DNA:RNA)
RNA: B9 RNA with G25A, C26G, G27A, U29A, U30C
DNA 1: CAATCTGAATTCCGGTCTCCC
DNA 2: TGGTGGCTACGACGGGATT
B29: CCGUUGC (DNA:RNA)
RNA: B9 RNA with G25C, A28U, U30G
DNA 1: CAATCTGAATTCCGGTCTCCC
DNA 2: TGGTGGCTACGACGGGATT
B30: CCCUUGU (DNA:RNA)
RNA: B1 RNA with A25C, U26C, G28U, C29U
DNA 1: CAATCTGAATTCCGGTCTCCC
DNA 2: TGGTGGCTACGACGGGATT
B31: UCCACGU (DNA:RNA)
RNA: B1 RNA with A25U, U26C, G28A
DNA 1: CAATCTGAATTCCGGTCTCCC
DNA 2: TGGTGGCTACGACGGGATT

The binders below were run against T1, RBFOX1 RRM (assay: EMSA; HiTS-Eq, 1 nM pool, 10 min; buffer printed only for the single-RNA assays: 10 mM Tris pH 7.5, 150 mM NaCl, 3.4 mM EDTA, 0.001% NP-40, 30 C). Details: tags: His6 N-terminal (pET28a); label: 5' 32P.
In short: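 A pool of RNA with 7 randomized nucleotides, 5′-radiolabelled and with DNA-annealed flanks, was equilibrated at 1 nM for 10 min in 50 µL with purified RbFox RRM, wild type or mutant, across increasing protein concentrations. Free RNA was separated by 8% native PAGE, excised, reverse-transcribed, barcoded by PCR and sequenced. Relative association constants were obtained from read-count changes of each RNA species versus the control reaction and normalised to the cognate motif.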
With B1 the binding signal was 0.00884 KA relative to UGCAUGU. For B2, the binding signal was 0.0263 KA relative to UGCAUGU. B3 was tested, and the binding signal was 0.00425 KA relative to UGCAUGU. In the case of B4, the binding signal is reported as 0.00236 KA relative to UGCAUGU. For B5, the binding signal was 0.00524 KA relative to UGCAUGU. In the case of B6, the binding signal is reported as 0.0229 KA relative to UGCAUGU. For B7, the binding signal was 0.000888 KA relative to UGCAUGU. For B8, the binding signal was 0.00727 KA relative to UGCAUGU. For B9, the binding signal was 0.0142 KA relative to UGCAUGU. B10 was tested, and the binding signal was 0.00308 KA relative to UGCAUGU. For B11, the binding signal was 0.00407 KA relative to UGCAUGU. B12 was tested, and the binding signal was 0.00944 KA relative to UGCAUGU. With B13 the binding signal was 0.00735 KA relative to UGCAUGU. B14 was tested, and the binding signal was 0.00729 KA relative to UGCAUGU. For B15, the binding signal was 0.00866 KA relative to UGCAUGU. In the case of B16, the binding signal is reported as 0.00078 KA relative to UGCAUGU. With B17 the binding signal was 0.000574 KA relative to UGCAUGU. With B18 the binding signal was 0.0096 KA relative to UGCAUGU. With B19 the binding signal was 0.0165 KA relative to UGCAUGU. In the case of B20, the binding signal is reported as 0.00841 KA relative to UGCAUGU. For B21, the binding signal was 0.000687 KA relative to UGCAUGU. With B22 the binding signal was 0.00313 KA relative to UGCAUGU. In the case of B23, the binding signal is reported as 0.0085 KA relative to UGCAUGU. B24 was tested, and the binding signal was 0.0135 KA relative to UGCAUGU. With B25 the binding signal was 0.0232 KA relative to UGCAUGU. B26 was tested, and the binding signal was 0.009 KA relative to UGCAUGU. B27 was tested, and the binding signal was 0.0159 KA relative to UGCAUGU. For B28, the binding signal was 0.00391 KA relative to UGCAUGU. With B29 the binding signal was 0.0124 KA relative to UGCAUGU. In the case of B30, the binding signal is reported as 0.0119 KA relative to UGCAUGU. In the case of B31, the binding signal is reported as 0.00615 KA relative to UGCAUGU.
